Data on seven substances can be found in article PMC4466662.

The chains behind the UniProt entries cited, without tags or fusion partners. Where a name states a change or a piece, a line headed by the entry shows the natural chain unless it says otherwise. A line that says so, or that is headed by a name, gives the form on record, which may keep a tag or linker. Residues count along the entry.
UniProt P40337: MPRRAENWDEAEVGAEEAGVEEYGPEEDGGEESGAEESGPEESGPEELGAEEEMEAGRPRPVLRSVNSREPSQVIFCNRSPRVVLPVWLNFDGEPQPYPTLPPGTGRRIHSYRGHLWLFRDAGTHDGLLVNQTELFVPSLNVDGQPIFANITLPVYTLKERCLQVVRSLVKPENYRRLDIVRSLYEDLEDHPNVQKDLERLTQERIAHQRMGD
Flag-VHL 1–154 aa: residues 1-154 of P40337
Flag-VHL Δ115–154 aa (P40337, form named): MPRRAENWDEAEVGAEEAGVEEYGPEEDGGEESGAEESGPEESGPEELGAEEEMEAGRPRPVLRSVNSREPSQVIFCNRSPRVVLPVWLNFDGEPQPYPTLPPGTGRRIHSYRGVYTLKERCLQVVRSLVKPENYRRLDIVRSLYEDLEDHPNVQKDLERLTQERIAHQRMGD
UniProt Q9GZX5: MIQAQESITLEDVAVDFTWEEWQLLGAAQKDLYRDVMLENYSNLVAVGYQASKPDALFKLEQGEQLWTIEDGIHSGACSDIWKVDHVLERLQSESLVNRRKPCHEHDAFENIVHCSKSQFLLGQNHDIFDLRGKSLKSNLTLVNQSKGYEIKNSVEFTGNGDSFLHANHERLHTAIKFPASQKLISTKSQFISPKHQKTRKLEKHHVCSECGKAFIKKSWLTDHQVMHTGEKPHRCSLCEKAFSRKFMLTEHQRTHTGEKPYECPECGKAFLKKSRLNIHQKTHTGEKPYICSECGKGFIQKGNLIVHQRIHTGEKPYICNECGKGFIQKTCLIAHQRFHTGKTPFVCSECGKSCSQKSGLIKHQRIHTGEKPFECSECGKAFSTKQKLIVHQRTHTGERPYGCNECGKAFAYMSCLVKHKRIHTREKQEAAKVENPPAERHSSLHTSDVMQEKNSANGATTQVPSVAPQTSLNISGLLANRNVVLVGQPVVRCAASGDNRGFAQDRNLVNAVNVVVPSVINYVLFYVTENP
UniProt Q09472: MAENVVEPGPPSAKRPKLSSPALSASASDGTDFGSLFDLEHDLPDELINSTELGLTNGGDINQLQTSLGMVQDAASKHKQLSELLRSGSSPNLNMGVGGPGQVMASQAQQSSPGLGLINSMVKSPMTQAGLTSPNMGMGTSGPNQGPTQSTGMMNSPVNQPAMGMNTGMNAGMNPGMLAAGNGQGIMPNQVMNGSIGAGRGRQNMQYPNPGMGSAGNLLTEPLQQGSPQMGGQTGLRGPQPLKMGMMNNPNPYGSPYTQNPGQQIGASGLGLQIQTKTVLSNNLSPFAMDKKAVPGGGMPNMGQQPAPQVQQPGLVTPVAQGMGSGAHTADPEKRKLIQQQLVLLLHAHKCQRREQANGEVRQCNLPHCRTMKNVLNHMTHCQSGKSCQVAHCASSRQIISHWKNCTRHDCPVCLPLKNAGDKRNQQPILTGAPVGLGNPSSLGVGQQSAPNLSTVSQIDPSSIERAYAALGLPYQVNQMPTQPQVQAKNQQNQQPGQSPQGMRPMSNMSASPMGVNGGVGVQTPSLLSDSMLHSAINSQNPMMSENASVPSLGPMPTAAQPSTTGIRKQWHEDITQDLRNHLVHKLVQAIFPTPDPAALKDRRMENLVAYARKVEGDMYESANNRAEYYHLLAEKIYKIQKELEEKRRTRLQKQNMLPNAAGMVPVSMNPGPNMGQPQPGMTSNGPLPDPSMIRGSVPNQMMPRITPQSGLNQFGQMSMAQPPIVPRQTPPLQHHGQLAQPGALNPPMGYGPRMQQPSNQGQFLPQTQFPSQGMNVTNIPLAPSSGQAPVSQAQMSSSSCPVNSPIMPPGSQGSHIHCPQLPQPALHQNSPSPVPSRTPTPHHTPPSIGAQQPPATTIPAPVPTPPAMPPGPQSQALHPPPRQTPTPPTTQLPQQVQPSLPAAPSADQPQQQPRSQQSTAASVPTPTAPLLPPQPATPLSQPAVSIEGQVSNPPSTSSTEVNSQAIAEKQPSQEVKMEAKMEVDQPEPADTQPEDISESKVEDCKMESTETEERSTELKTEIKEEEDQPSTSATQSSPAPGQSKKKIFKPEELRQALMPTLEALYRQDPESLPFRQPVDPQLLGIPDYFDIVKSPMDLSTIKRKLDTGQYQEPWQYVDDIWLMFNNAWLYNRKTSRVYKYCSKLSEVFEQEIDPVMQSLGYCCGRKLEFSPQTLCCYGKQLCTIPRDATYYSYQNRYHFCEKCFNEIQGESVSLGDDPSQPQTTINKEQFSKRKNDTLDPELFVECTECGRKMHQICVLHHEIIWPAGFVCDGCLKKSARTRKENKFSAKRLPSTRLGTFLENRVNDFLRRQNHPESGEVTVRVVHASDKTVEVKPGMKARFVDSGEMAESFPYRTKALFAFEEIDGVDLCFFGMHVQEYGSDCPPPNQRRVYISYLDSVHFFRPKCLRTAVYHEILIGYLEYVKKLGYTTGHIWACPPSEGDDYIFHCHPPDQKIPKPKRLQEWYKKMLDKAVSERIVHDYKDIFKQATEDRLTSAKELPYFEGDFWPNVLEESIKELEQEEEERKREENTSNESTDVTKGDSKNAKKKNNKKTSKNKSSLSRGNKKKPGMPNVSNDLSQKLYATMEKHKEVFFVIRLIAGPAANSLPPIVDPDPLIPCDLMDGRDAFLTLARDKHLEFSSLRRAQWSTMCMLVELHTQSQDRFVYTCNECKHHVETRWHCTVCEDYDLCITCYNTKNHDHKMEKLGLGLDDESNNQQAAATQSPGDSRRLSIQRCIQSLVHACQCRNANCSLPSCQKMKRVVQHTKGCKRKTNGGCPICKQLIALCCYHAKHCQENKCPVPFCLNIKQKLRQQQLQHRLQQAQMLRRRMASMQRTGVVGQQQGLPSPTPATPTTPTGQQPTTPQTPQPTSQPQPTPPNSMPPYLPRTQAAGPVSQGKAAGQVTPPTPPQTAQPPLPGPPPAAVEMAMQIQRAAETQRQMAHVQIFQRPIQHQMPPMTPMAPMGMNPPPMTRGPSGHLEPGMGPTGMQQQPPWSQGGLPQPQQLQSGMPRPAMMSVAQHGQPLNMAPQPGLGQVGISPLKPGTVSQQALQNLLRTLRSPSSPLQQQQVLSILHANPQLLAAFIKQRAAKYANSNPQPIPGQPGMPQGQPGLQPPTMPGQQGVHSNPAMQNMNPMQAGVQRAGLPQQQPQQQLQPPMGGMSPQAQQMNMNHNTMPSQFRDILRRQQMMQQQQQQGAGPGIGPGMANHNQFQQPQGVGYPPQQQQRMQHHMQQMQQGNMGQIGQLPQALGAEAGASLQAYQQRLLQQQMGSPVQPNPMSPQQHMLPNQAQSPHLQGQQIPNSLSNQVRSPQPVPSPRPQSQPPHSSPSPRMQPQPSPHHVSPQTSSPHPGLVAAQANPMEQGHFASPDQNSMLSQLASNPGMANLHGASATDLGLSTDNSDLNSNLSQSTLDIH
UniProt Q16665: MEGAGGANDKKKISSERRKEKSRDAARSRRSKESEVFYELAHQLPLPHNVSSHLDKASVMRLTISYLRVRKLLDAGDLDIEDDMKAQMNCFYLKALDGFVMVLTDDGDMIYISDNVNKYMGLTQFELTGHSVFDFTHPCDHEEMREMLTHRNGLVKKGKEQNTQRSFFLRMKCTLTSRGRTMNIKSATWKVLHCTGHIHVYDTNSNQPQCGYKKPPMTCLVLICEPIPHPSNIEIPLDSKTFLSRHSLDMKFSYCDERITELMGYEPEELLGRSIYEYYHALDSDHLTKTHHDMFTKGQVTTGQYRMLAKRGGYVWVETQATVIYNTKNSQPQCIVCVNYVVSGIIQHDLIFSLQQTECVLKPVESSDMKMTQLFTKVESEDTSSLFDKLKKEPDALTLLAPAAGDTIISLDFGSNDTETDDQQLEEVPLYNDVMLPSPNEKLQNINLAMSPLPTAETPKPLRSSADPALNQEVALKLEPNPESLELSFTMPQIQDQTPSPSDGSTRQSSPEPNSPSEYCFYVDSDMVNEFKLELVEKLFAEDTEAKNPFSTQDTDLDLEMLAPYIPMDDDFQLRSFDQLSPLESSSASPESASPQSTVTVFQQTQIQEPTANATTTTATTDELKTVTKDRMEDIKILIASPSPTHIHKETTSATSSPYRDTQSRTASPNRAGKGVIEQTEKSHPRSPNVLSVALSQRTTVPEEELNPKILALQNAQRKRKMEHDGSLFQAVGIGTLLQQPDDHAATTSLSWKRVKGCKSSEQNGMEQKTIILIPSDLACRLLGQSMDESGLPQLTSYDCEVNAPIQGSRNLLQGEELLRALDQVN

Test [1] concerns the target Flag-VHL 1–154 aa (human) (UniProt P40337). The test can be described thus: co-IP; HEK293T transfected with Flag- and HA-tagged constructs; lysed in NETN buffer; IP with anti-Flag and Protein G Agarose overnight at 4°C; blot with anti-HA.
Test [2] concerns the target Flag-VHL Δ115–154 aa (human) (UniProt P40337). The test is described as above.
A further test addresses Flag-VHL (human) (UniProt P40337). The description is as above.
The target in test [3] is ZBRK1 (endogenous, ACHN cells) (human (endogenous in ACHN)) (UniProt Q9GZX5). The test can be described thus: co-IP; second step of tandem affinity purification: the desthiobiotin eluate from Strep-Tactin beads precipitated with anti-ZBRK1 and Protein G Agarose overnight at 4°C; blot with anti-Flag and anti-p300.
Test [4] concerns the target Flag-ZBRK1 (human) (UniProt Q9GZX5). Put plainly: co-IP; HEK293T co-transfected with Flag-ZBRK1, HA-VHL and EGFP-HIF1α; precipitating antibody not told in the text (Supplementary Figure S5A).
For test [5] the target is unchanged. The test can be described thus: co-IP; HEK293T transfected with Flag- and HA-tagged constructs; lysed in NETN buffer; IP with anti-Flag and Protein G Agarose overnight at 4°C; blot with anti-HA.
For test [6], the target named is VHL (endogenous, ACHN cells) (human (endogenous in ACHN)) (UniProt P40337). Put plainly: co-IP; endogenous proteins, ACHN cell lysates; IP with anti-VHL (control rabbit IgG); blot with anti-ZBRK1 and anti-p300.
The next test addresses SF-VHL (human) (UniProt P40337). The test can be described thus: pull-down; first step of tandem affinity purification: lysate (NETN) of ACHN cells stably expressing SF-VHL on Strep-Tactin Sepharose 4 h at 4°C, eluted with 2.5 mM desthiobiotin; blot with anti-Flag, anti-ZBRK1, anti-p300.
Another test has as its target GST-VHL (human) (UniProt P40337). Put plainly: pull-down; GST-VHL purified from E. coli on glutathione-Sepharose 4B, incubated with lysates of Flag-ZBRK1-transfected HEK293T cells; NETN buffer; blot with anti-Flag; only the target purified.

Results are given in words; binding and its absence hold for the method and conditions named. In cells and extracts the contact can be indirect. Some entries that bind do so weakly or less than the wild type.

Turning to HA-ZBRK1 (from UniProt Q9GZX5 1-532), the binding result (in test [1]; in test [2]; in the test with Flag-VHL (human)) was “binds” throughout.
Consider SF-VHL (from UniProt P40337 1-213), for which the binding entry in test [3] is recorded as “binds”.
In the case of HA-VHL (from UniProt P40337 1-213), the binding result with Flag-ZBRK1 (human) [4] and in the test with Flag-ZBRK1 (human) [5] was “binds” in each case.
With “p300 (endogenous, ACHN cells) (from UniProt Q09472 1-2414)”, the binding result (in [6]; with SF-VHL (human)) was “binds” in each case.
On to EGFP-HIF1α (from UniProt Q16665 1-826), for which the binding entry with Flag-ZBRK1 (human) [4] is given as “no binding”.
As for “ZBRK1 (endogenous, ACHN cells) (from UniProt Q9GZX5 1-532)”, the binding result (in test [6]; in the test with SF-VHL (human)) was “binds” throughout.
For Flag-ZBRK1 (from UniProt Q9GZX5 1-532), the binding entry with GST-VHL (human) is “binds”.
